Assay results taken from a collection of fitness landscapes (doi:10.1016/j.celrep.2020.107928).
The full ranking holds about 81,000 sequences; the median of “one-hybrid fitness for binding NBS DNA” is about -0.1, and the highest 2% start at about 0.36. The list shows a part of the results.

B1: Caulobacter ParB omega fusion; a variant is named by its letters at X, in order, B8GW30 (parent)
chain: MESVVVGEPGMSEGRRGLGRGLSALLGEVDAAPAQAPGEQLGGSREAPIEILQRNPDQPRRTFREEDLEDLSNSIREKGVLQPILVRPSPDTAGEYQIVAGERAWRAAQRAGLKTVPIMVRELDDLAVLEIGIIENVQRADLNVLEEALSYKVLMEKFERTQENIAQTIGKSXSHVANXMRLLXLPDEVQSYLVSGELTAXHARAIAAAADPVALAKQIIEGGLSVRETEALARKAPNLSAGKSKGGRPPRVKDTDTQALESDLSSVLGLDVSIDHRGSTGTLTITYATLEQLDDLCNRLTRGI

Variants of: B1
Assay: one-hybrid fitness for binding NBS DNA (the Noc-binding site; scaled: cognate 1, non-cognate 0); higher = stronger binding
Settings: with NBS DNA site
Procedure, shortened: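 Values were rescaled so that cognate is 1 and non-cognate is 0. Each is a fitness, the log change in a variant's read ratio to wild type from Illumina reads of plasmids before and after selection, with three replicate libraries pooled and variants under 10 reads dropped. Selection of the Caulobacter ParB libraries, four specificity codons randomised, used E. coli USO with a HIS3 reporter, site 19 bp from the promoter, on M9-minus-histidine with 0.1 mM IPTG and 5 mM 3-AT for 48 hours at 37°C.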

First: KTHR
Second: NFHV
The “one-hybrid fitness for binding NBS DNA” value of the first is higher: 0.269 for the first, at most 0.2 for the second.

SAIR and ACPE cannot be ordered by “one-hybrid fitness for binding NBS DNA” value: at most 0.2 for the first, at most 0.2 for the second.

HQPF and SNTN cannot be ordered by “one-hybrid fitness for binding NBS DNA” value: at most 0.2 for the first, at most 0.2 for the second.

TYKC and WYVY cannot be ordered by “one-hybrid fitness for binding NBS DNA” value: at most 0.2 for the first, at most 0.2 for the second.

RNFE and VPRR cannot be ordered by “one-hybrid fitness for binding NBS DNA” value: at most 0.2 for the first, at most 0.2 for the second.

QAED and NPDG cannot be ordered by “one-hybrid fitness for binding NBS DNA” value: at most 0.2 for the first, at most 0.2 for the second.

QEHT and GSTV cannot be ordered by “one-hybrid fitness for binding NBS DNA” value: at most 0.2 for the first, at most 0.2 for the second.

First: MNLD
Second: QHRY
The “one-hybrid fitness for binding NBS DNA” value of the first is lower: at most 0.2 for the first, 0.488 for the second.

AHQE and FYDT cannot be ordered by “one-hybrid fitness for binding NBS DNA” value: at most 0.2 for the first, at most 0.2 for the second.

QSSM and HKKK cannot be ordered by “one-hybrid fitness for binding NBS DNA” value: at most 0.2 for the first, at most 0.2 for the second.

HTCK and DPFC cannot be ordered by “one-hybrid fitness for binding NBS DNA” value: at most 0.2 for the first, at most 0.2 for the second.

IVTF and GGDS cannot be ordered by “one-hybrid fitness for binding NBS DNA” value: at most 0.2 for the first, at most 0.2 for the second.

VMPY and TVCL cannot be ordered by “one-hybrid fitness for binding NBS DNA” value: at most 0.2 for the first, at most 0.2 for the second.

Compared with QKRI, TAYQ is lower in “one-hybrid fitness for binding NBS DNA” value: 0.301 for the first, at most 0.2 for the second.

KSLT and NEGS cannot be ordered by “one-hybrid fitness for binding NBS DNA” value: at most 0.2 for the first, at most 0.2 for the second.

Going from RMQR to LHEP, the “one-hybrid fitness for binding NBS DNA” value falls from 0.411 to at most 0.2.

GSPA and YLTG cannot be ordered by “one-hybrid fitness for binding NBS DNA” value: at most 0.2 for the first, at most 0.2 for the second.

PRHH and RFAL cannot be ordered by “one-hybrid fitness for binding NBS DNA” value: at most 0.2 for the first, at most 0.2 for the second.

RWHI and YRTY cannot be ordered by “one-hybrid fitness for binding NBS DNA” value: at most 0.2 for the first, at most 0.2 for the second.

First: MLQN
Second: QTQV
The “one-hybrid fitness for binding NBS DNA” value of the first is lower: at most 0.2 for the first, 0.207 for the second.

QTVD and GKHS cannot be ordered by “one-hybrid fitness for binding NBS DNA” value: at most 0.2 for the first, at most 0.2 for the second.

HYYD and GREL cannot be ordered by “one-hybrid fitness for binding NBS DNA” value: at most 0.2 for the first, at most 0.2 for the second.

VVDA and WEPR cannot be ordered by “one-hybrid fitness for binding NBS DNA” value: at most 0.2 for the first, at most 0.2 for the second.

LSLK and YRDA cannot be ordered by “one-hybrid fitness for binding NBS DNA” value: at most 0.2 for the first, at most 0.2 for the second.

MWDF and EAKG cannot be ordered by “one-hybrid fitness for binding NBS DNA” value: at most 0.2 for the first, at most 0.2 for the second.

KYRL and HPTV cannot be ordered by “one-hybrid fitness for binding NBS DNA” value: at most 0.2 for the first, at most 0.2 for the second.

QWWS and NRSM cannot be ordered by “one-hybrid fitness for binding NBS DNA” value: at most 0.2 for the first, at most 0.2 for the second.

RKIM and HNQS cannot be ordered by “one-hybrid fitness for binding NBS DNA” value: at most 0.2 for the first, at most 0.2 for the second.

YIFC and GLMS cannot be ordered by “one-hybrid fitness for binding NBS DNA” value: at most 0.2 for the first, at most 0.2 for the second.

Going from QHNT to SLTA, the “one-hybrid fitness for binding NBS DNA” value falls from 0.49 to at most 0.2.

MYHG and WFLL cannot be ordered by “one-hybrid fitness for binding NBS DNA” value: at most 0.2 for the first, at most 0.2 for the second.

SGPS and MCTG cannot be ordered by “one-hybrid fitness for binding NBS DNA” value: at most 0.2 for the first, at most 0.2 for the second.

RMKI and WNMS cannot be ordered by “one-hybrid fitness for binding NBS DNA” value: at most 0.2 for the first, at most 0.2 for the second.

IHCS and FCAT cannot be ordered by “one-hybrid fitness for binding NBS DNA” value: at most 0.2 for the first, at most 0.2 for the second.

HLLT and RCEI cannot be ordered by “one-hybrid fitness for binding NBS DNA” value: at most 0.2 for the first, at most 0.2 for the second.

QFVG and QIKF cannot be ordered by “one-hybrid fitness for binding NBS DNA” value: at most 0.2 for the first, at most 0.2 for the second.

SYMT and RPLV cannot be ordered by “one-hybrid fitness for binding NBS DNA” value: at most 0.2 for the first, at most 0.2 for the second.

WVGG and HKHF cannot be ordered by “one-hybrid fitness for binding NBS DNA” value: at most 0.2 for the first, at most 0.2 for the second.

NIPG and RLNC cannot be ordered by “one-hybrid fitness for binding NBS DNA” value: at most 0.2 for the first, at most 0.2 for the second.

NKKM and MYNT cannot be ordered by “one-hybrid fitness for binding NBS DNA” value: at most 0.2 for the first, at most 0.2 for the second.

KTFC and WYQT cannot be ordered by “one-hybrid fitness for binding NBS DNA” value: at most 0.2 for the first, at most 0.2 for the second.

First: LTDL
Second: QHKM
The “one-hybrid fitness for binding NBS DNA” value of the first is lower: at most 0.2 for the first, 0.379 for the second.

THSV and VCCW cannot be ordered by “one-hybrid fitness for binding NBS DNA” value: at most 0.2 for the first, at most 0.2 for the second.

PPIC and PEQL cannot be ordered by “one-hybrid fitness for binding NBS DNA” value: at most 0.2 for the first, at most 0.2 for the second.

First: RRVA
Second: TECA
The “one-hybrid fitness for binding NBS DNA” value of the first is higher: 0.571 for the first, at most 0.2 for the second.

MWQG and QVQA cannot be ordered by “one-hybrid fitness for binding NBS DNA” value: at most 0.2 for the first, at most 0.2 for the second.

HWRC and VWKC cannot be ordered by “one-hybrid fitness for binding NBS DNA” value: at most 0.2 for the first, at most 0.2 for the second.

AYEW and STPC cannot be ordered by “one-hybrid fitness for binding NBS DNA” value: at most 0.2 for the first, at most 0.2 for the second.

In the case of SKSP, the “one-hybrid fitness for binding NBS DNA” value is reported as at most 0.2.
